Results: PubChem BioAssay AID1963576 (National Center for Advancing Translational Sciences (NCATS), 2024)
Hit rate of the full screen: of about 46,000 compounds, about 60 (0.1%) were called active. About 3% were inconclusive and are not listed. The call rests on the fitted dose curve; in most records, active means well fitted inhibition curve with a large enough effect; inconclusive means small, poorly fitted or top-dose-only effect; inactive means no such curve, though single readings can be large or run the other way. Some of the results follow. Starred links: 1 amine or outer side, 2 acyl side, 3 side chain; linkers in the order of their positions; H or OH if unused. Positions of bridges follow the written chain, without caps; N, C: chain ends. Non-standard residues stand in square brackets, D forms with d. Residues, ends and D or L forms follow the SMILES beside them. Chains are numbered I, II in the order given. Actinocin(9to1) = Cc1c2oc3c(C)ccc(C(=O)[*:1])c3nc-2c(C(=O)[*:2])c(N)c1=O; NMeV = CN[CH](C(=O)O)C(C)C; Sar = CNCC(=O)O

test: Primary qHTS assay for Inhibitors of ovarian cancer metastasis using an organotypic tumor microenvironment (TME) model.; further: nearly all actives have a fitted effect of over 65% in size;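 on activity change, negative = inhibition: plate controls were DMSO wells for no effect and tomatine positive control wells for full effect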; conditions: SKOV3ip1-GFP adhesion/invasion on 3D omental model, fluorescence; series mostly up to 45.8 µM; activity change, negative = inhibition: at the top concentration
In short: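 Primary human omental fibroblast/mesothelial 3D culture pre-formed 48 h. SKOV3ip1-GFP cells added with compounds (0.36-46 umol/L), incubated 2 h RT/16 h 37 C, fixed; GFP cells quantified at 488/509 nm.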

Activity change, negative = inhibition, inactive:
COc1ccc(Cl)cc1NC(=O)c1ccc2c(c1)CCCN2S(C)(=O)=O 0.898%
CCOc1ccc(CN2CCN(c3ncnc4sc5c(c34)CC(C)CC5)CC2)cc1 (stereo not given) -1.39%
CC(=O)c1ccc(NC(=O)Cn2cc3c(n2)CCCC3)cc1 5.33%
O=C(O)c1cc(-c2ccc(C(F)(F)F)cc2)nc2n[nH]c(-c3ccccc3)c12 -11.8%
O=C(NCCSc1c(-c2ccccc2)[nH]c2ccccc12)c1ccc(S(=O)(=O)N2CCOCC2)cc1 -22.2%
Cc1ccc(CNC(=O)C2CCN(S(=O)(=O)c3ccc4c(c3)CCCN4C(=O)C3CCC3)CC2)cc1 4.83%
CCOc1ccc2c(c1)c(=O)c(S(=O)(=O)c1ccccc1)cn2CC(=O)Nc1ccccc1OC -8.56%
CCCCNC(=O)c1cnn2c(C)c(Cc3c(F)cccc3Cl)c(C)nc12 -8.74%
Cc1ccccc1NC(=O)CN1C(=O)C(C)(C)c2ccccc21 11.9%
Cc1c2oc3c(C)ccc(C(=O)NC4C(=O)NC(C(C)C)C(=O)N5CCCC5C(=O)N(C)CC(=O)N(C)C(C(C)C)C(=O)OC4C)c3nc-2c(C(=O)NC2C(=O)NC(C(C)C)C(=O)N3CCCC3C(=O)N(C)CC(=O)N(C)C(C(C)C)C(=O)OC2C)c(N)c1=O (stereo not given) (I: TVP[Sar][NMeV] / II: TVP[Sar][NMeV]; ester I:1-I:C, II:1-II:C; linker I:N-II:N via Actinocin(9to1); configuration not given here) -13.2%
COc1ccc(NC(=O)CN2C(=O)CSc3ccc(S(=O)(=O)N4CCCC4)cc32)cc1OC -2.45%
O=C1c2c(O)cccc2[C@@H]([C@@H]2O[C@H](CO)[C@@H](O)[C@H](O)[C@H]2O)c2cc(CO)cc(O)c21 -12.4%
COc1ccc(Cc2nccc3cc(OC)c(OC)cc23)cc1OC 0.992%
CCCC(=O)NCC1(N(C)C)CCCCC1 -13.5%
Cc1ccc(Cl)cc1NC(=O)c1cnc(N2CCCCC2)c2ccccc12 -5.36%
Cc1cccc(C(=O)Nc2c(-c3ccccc3)nc3cc(C)ccn23)c1 -1.23%
CC(C)OCCCn1c(=O)c2ccccc2n2c(-c3ccc(F)cc3)nnc12 -7.31%
Cn1c(=NC(=O)c2ccc(S(=O)(=O)N3CCCc4ccccc43)cc2)sc2cc(F)ccc21 -1.28%
COc1ccc(S(=O)(=O)N(CC(=O)Nc2ccccc2Br)Cc2ccccc2)cc1 1.39%
COc1ccccc1NC(=O)C(=O)NCC(c1ccc2c(c1)OCO2)N1CCN(C)CC1 (stereo not given) -0.715%
CCOc1cc2sc(N3CCC(C(=O)Nc4ccc(C)cc4C)CC3)nc2cc1Br -4.79%
COc1ccc(NC(=O)C(=O)NCCc2csc(-c3ccc(Cl)cc3)n2)cc1OC -1.07%
CN(C)c1ccc(C(CNC(=O)c2ccccc2)N2CCc3ccccc32)cc1 (stereo not given) 3.03%
CCc1ccc(CN(Cc2ccco2)c2cnc(S(C)(=O)=O)nc2C(=O)Nc2cccc(C)c2)cc1 -3.03%
CCOC(=O)COc1ccc([N+](=O)[O-])cc1-c1ccnc2cc(-c3ccc(Cl)cc3)nn12 33.7%
Cc1ccc(SCCNC(=O)CN(c2ccccc2)S(=O)(=O)N(C)C)cc1 -1.68%
COCCCNC(=O)c1oc2c(c1C)-c1nn(Cc3ccccc3Cl)cc1CC2 -6.81%
CNC(=O)C1CCC(Cn2c(=O)c3sccc3n(CC(=O)NCc3ccccc3)c2=O)CC1 (stereo not given) 19.4%
Cc1ccccc1C(=O)Nc1sc2c(c1C(=O)NCc1ccco1)CCC(C(C)(C)C)C2 (stereo not given) 2.2%
Cc1cccc(-c2noc(-c3ccccc3OCC(=O)Nc3ccc([N+](=O)[O-])cc3)n2)c1 -0.707%
CC(C)CC(=O)Nc1cccc(-c2nc3ccccc3[nH]2)c1 2.72%
CCc1cnc2c(c1SCC(=O)c1ccccc1)c(=O)n(C)c(=O)n2C 9.27%
CCN1CCc2nc3sc(C(=O)Nc4cccc(Cl)c4C)c(N)c3cc2C1 -5.53%
CC1CCC(C(=O)NC(C(=O)OCC(=O)c2ccccc2)C(C)C)CC1 (stereo not given) -0.707%

outcome, inactive:
CCc1ccc(S(=O)(=O)c2cn(CC)c3cc(N4CCOCC4)c(F)cc3c2=O)cc1
Cc1nc(-c2ccccc2)sc1CCNS(=O)(=O)c1ccccc1
COc1cccc(NC(=O)c2cc3c(=O)n(C)c4ccccc4c3n2C)c1
CCOc1ccc(S(=O)(=O)N(CC(=O)NCCc2ccc(OC)c(OC)c2)c2ccccc2)cc1
COc1ccc(OC)c(CCNC(=O)c2c(C)oc3ncn(C)c(=O)c23)c1
Cc1cccc(C)c1NC(=O)Cn1c(=O)n(CCC(=O)NCc2ccccc2Cl)c(=O)c2sccc21
N#Cc1ccc(C(=O)Nc2cc3nn(-c4ccccc4)nc3cc2Cl)c(F)c1
COc1ccc(-c2nc3scc(CCNS(=O)(=O)c4ccc(C)cc4)n3n2)cc1
COC(=O)c1ccc(NC(=O)CSc2nc(=O)[nH]c3c2CCCC3)cc1
COc1ccccc1CNc1nc(-c2ccco2)nn1S(=O)(=O)c1ccc2ccccc2c1
CCC1=Nc2cc(C(=O)NCCCOC)ccc2Sc2ccc(Br)cc21
